A word on the % Inhibition: it is the change of the read-out against control, counted positive when it falls.

Molecules are shown by their SMILES. The campaign covered roughly 150,000 compounds. About 540 (0.36%) showed an effect of 50% or more. This is one part of the list.

Experimental findings from ChEMBL document CHEMBL4888484, “Replenishing the malaria drug discovery pipeline: Screening and hit evaluation of the MMV Hit Generation Library 1 (HGL1) against asexual blood stage Plasmodium falciparum ,using a nano luciferase reporter read-out” (2022) are described below.

For this assay, the system named is Plasmodium falciparum. As to the kind of experiment: Primary screen in NF54 nanoGlo assay, in single point, at 2uM, 72h; a lower Z score goes with more inhibition. The class given is functional, Erythrocyte. The settings on record: timepoint 72 hour.
In the case of `CCS(=O)(=O)CCNC1CC2CC1C1CCCC21` (stereo not drawn), the “% Inhibition” value amounted to 3% and the Z score was -0.35.
On to `Cc1ccc(S(=O)(=O)N2CCC(=C3CCC3)CC2)cc1C`, for which the “% Inhibition” value is on record as -11% and the Z score is recorded as 1.65.
On the same counts, the results for `Cc1[nH]c(=O)[nH]c(=O)c1-c1ccc(C(=O)N2CCCCCCC2)cc1` are -4% and 0.94.
With `O=C1[C@@H]2C[C@@H](CN2C(=O)c2cncnc2)Oc2ccccc2N1Cc1cccnc1`, the “% Inhibition” value is given as 34% and the Z score is -0.72.
On the same counts, the results for `O=C(Nc1cccc2c1CCCC2)c1cnc(-n2cccn2)cn1` are -10% and 2.09.
On the same counts, the results for `CC[C@@H](CO)NC(=O)c1ccc(OC)c(OC)c1` are 29% and -3.7.
On the same counts, the results for `CC(=O)c1cc(-c2ncnn2C2CCCCC2)[nH]n1` are 1% and -0.25.
Consider `C[C@H](NS(=O)(=O)c1ccccc1)c1cncs1`, for which the “% Inhibition” value is reported as -7% and the Z score was 1.37.
On the same counts, the results for `Nc1ncccc1CNC(=O)COCC(F)(F)C(F)F` are 2% and -0.22.
Regarding `COc1cccc(CC(=O)N2CCCCCCNC(=O)[C@H]3C[C@H](c4nc(C(C)C)no4)C[C@H]32)c1`, the “% Inhibition” value was -13% and the Z score is 1.58.
`C/C=C(\C)CN1CCN(C(=O)OCC)CC1`: the “% Inhibition” value is -9% and the Z score is 1.27.
Turning to `Cc1ccc(NC(=O)N2CCCN(c3nc4cc(Cl)ccc4n4cccc34)CC2)c(Cl)c1`, the “% Inhibition” value is on record as 0% and the Z score is 0.
On the same counts, the results for `Cc1cccc(NC(=O)N(CCN(C)C)C2CCOCC2)c1C` are 1% and -0.15.
On the same counts, the results for `COc1cccc(C2c3[nH]c4ccccc4c3C[C@H]3C(=O)N(c4ccccc4C(=O)N4CCCC4C(=O)O)C(=O)N23)c1` (stereo partly drawn) are -4% and 0.51.
Take `CS(=O)(=O)N(CCCC(=O)Nc1ccc2c(c1)OCCO2)c1ccccc1F`: the “% Inhibition” value is recorded as -4% and the Z score is recorded as 0.66.
In the case of `Cc1oc(-c2cccc(F)c2F)nc1CN1CC[C@H](O)[C@@H](O)C1`, the “% Inhibition” value is -7% and the Z score came out at 1.31.
On the same counts, the results for `c1ccc2cc(-c3ncc(CNCc4nnc5n4CCC5)cn3)ccc2c1` are 4% and -0.6.
Consider `Cc1ccc(C(=O)N2CCc3nc[nH]c3[C@H]2c2ccccn2)cn1`, for which the “% Inhibition” value is -2% and the Z score amounted to 0.24.
Taken in the same sequence, the figures for `CCO[C@H]1COC[C@@H]1NC(=O)Nc1ccnn1-c1ccccc1` were -18% and 3.03.
Take `Cn1ncc(Cl)c1C(=O)N[C@@]12CCC[C@@H]1C2`: the “% Inhibition” value is on record as -7% and the Z score was 0.59.
As to `CC(C)CN(Cc1ccsc1)C(=O)Cn1ccc(=O)cc1`, the “% Inhibition” value is -4% and the Z score came to 0.89.
Taken in the same sequence, the figures for `O=C(c1cccc(Cl)c1)[C@H]1CCCN(C(=O)CCCn2ccnc2)C1` were 5% and -0.59.
On the same counts, the results for `Cc1cccc(-n2cc(-c3ccccc3)nc2NC(=O)CN(Cc2ccco2)C(=O)c2ccccc2Cl)c1` are -7% and 1.03.
Taken in the same sequence, the figures for `CCN(C(=O)c1nnc(C(C)C)s1)[C@H]1CCOC1` were -14% and 2.15.
`COc1ccc(F)c(CN(C)Cc2nc(C)cs2)c1F`: the “% Inhibition” value is listed as -15% and the Z score worked out at 2.1.
On the same counts, the results for `CCN(CCOc1cccc(OC)c1)C(=O)c1cc(C(C)C)nn1C` are 13% and -1.6.
On to `COc1cccc(CNC(=O)Cn2ccc3ccn(Cc4ccccc4C)c3c2=O)c1`, for which the “% Inhibition” value stood at 10% and the Z score is recorded as -1.16.
On the same counts, the results for `CNc1ncc(-c2nc(-c3ccco3)nn2[C@H]2CCS(=O)(=O)C2)cn1` are -3% and 0.47.
Regarding `Cc1n[nH]c(C)c1CCC(=O)N1C[C@@H]2CC[C@H]1CN(Cc1cscn1)C2`, the “% Inhibition” value was -8% and the Z score was 1.3.
Taken in the same sequence, the figures for `COc1ccc(CNC/C=C/c2ccccc2)cc1` were -20% and 2.3.
On the same counts, the results for `CCCNC(=O)CN(C)Cc1nc(CC)no1` are -7% and 1.04.
For `Cn1cc(CN2CCCC[C@H]2C(=O)N2CCOCC2)nn1`, the “% Inhibition” value is reported as -4% and the Z score came to 0.52.
On the same counts, the results for `Cc1noc(C)c1CN1C(=O)[C@@H]2CC[C@H]1CN(c1cc(N)ncn1)C2` are 3% and -0.49.
Turning to `O=C1Cc2cc(S(=O)(=O)N3CCCc4ccccc43)ccc2N1`, the “% Inhibition” value stood at 7% and the Z score is listed as -0.92.
On the same counts, the results for `COCCCNC(=O)CN(c1cc(Cl)c(Cl)cc1Cl)S(C)(=O)=O` are 1% and -0.2.
On the same counts, the results for `COc1ccc(C[C@@H](Cc2ccc3c(c2)OCO3)NC(=O)Nc2ccc3c(c2)OCCO3)cc1` are -8% and 1.29.
On the same counts, the results for `CC(C)CCn1c(=O)n(CCN2C[C@H]3CC[C@H]2C3)c2cc(C(=O)O)cnc21` are -19% and 2.5.
For the molecule `Cc1c(C(=O)N2CCOCC2)sc2ncnc(N[C@@H](C)c3cccs3)c12`, the “% Inhibition” value was -10% and the Z score was determined as 1.79.
Taken in the same sequence, the figures for `COc1ccccc1-c1noc2ncnc(N3CCCCCC3)c12` were -1% and 0.16.
On the same counts, the results for `COCCOCCn1ncc2c(cnn2-c2ccccc2)c1=O` are 1% and -0.12.
On the same counts, the results for `Cc1cccc(O)c1C(=O)N[C@H]1CCN(C2CCCCC2)C1` are 0% and 0.02.
Take `O=C(NCc1ccc(C(=O)N2CCOCC2)cc1)c1cc(Br)ccc1F`: the “% Inhibition” value was -7% and the Z score is reported as 0.93.
`Cc1ccc(Cl)cc1N(C)C(=O)c1c2c(nc3ccccc13)C(=O)N(C1CCCCC1)C2`: the “% Inhibition” value is -5% and the Z score is listed as 0.86.
For `NS(=O)(=O)C[C@H]1CCCCN1S(=O)(=O)c1ccco1`, the “% Inhibition” value is given as -11% and the Z score turned out to be 2.1.
On the same counts, the results for `O=C(c1coc(COc2ccc3ncccc3c2)n1)N1CCC1` are -13% and 2.57.
For the molecule `O=C(Cn1cc(S(=O)(=O)Cc2cccc3ccccc23)c2ccccc21)N1CCCC1`, the “% Inhibition” value is given as 20% and the Z score is recorded as -2.58.
Take `CNCC#CCOc1cc(C)cc(C)c1`: the “% Inhibition” value is -6% and the Z score came out at 0.61.
Taken in the same sequence, the figures for `CCc1ccc2[nH]c3c(c(=O)c2c1)CN(CC(=O)NCc1ccccc1Cl)CC3` were -9% and 1.03.
Taken in the same sequence, the figures for `C[C@@H](CCC(=O)N(C)Cc1nc2ccccc2n1C)N1CCOCC1` were 2% and -0.38.
As for `Cc1nccn1-c1cc(CNC(=O)[C@H]2CCCN(C(=O)c3ccoc3)C2)ccn1`, the “% Inhibition” value is on record as -5% and the Z score was found to be 0.54.
`OC[C@]1(O)CCCN(Cc2sc3ccccc3c2Cl)CC1`: the “% Inhibition” value is -16% and the Z score came out at 2.72.
On the same counts, the results for `CCC(C)NC(=O)CN1CCOCC1c1ncno1` (stereo not drawn) are 3% and -0.48.
On the same counts, the results for `CCc1cccc(C)c1-n1c(N)c(C(=O)NCc2ccco2)sc1=S` are 3% and -0.46.
Taken in the same sequence, the figures for `CCOC(=O)c1[nH]c2c(c1OC(C)=O)CCC2` were -3% and 0.39.
`Cc1cccnc1CN(C(=O)Nc1cncc(F)c1)C(C)C`: the “% Inhibition” value is -2% and the Z score is listed as 0.32.
Turning to `O=C1N[C@H](c2cccc(O)c2)C(=O)N1c1ccccc1OC(F)(F)F`, the “% Inhibition” value is given as -11% and the Z score is 1.54.
On the same counts, the results for `CCOC(=O)c1c(-c2ccccc2)n(S(C)(=O)=O)c2ccc(NS(C)(=O)=O)cc12` are -12% and 1.37.
On the same counts, the results for `O=C(C1CCC1)N(Cc1ccc(F)cc1)C[C@H]1CC(c2ccc(Cl)cc2)=NO1` are -7% and 1.11.
Taken in the same sequence, the figures for `Cc1cccc(N2C(=O)C3C4C=CC(C4=C4CCCCC4)C3C2=O)c1` (stereo not drawn) were 0% and 0.03.
As to `CC(=O)Nc1nc(C(=O)Nc2ccccc2-c2ccccc2)cs1`, the “% Inhibition” value is on record as -4% and the Z score is recorded as 0.78.
With `COc1ccc(CNC(=O)CC2CCN(C(=O)c3[nH]c(C)cc3C)CC2)cc1`, the “% Inhibition” value is recorded as 2% and the Z score was -0.26.
For the molecule `CC(=O)Nc1ccc(OCC(=O)N2CCCCCC2)nc1`, the “% Inhibition” value is given as -7% and the Z score is given as 1.19.
On the same counts, the results for `COc1ccc(-n2nnnc2C2(NCc3ccccc3)CCCC2)cc1OC` are -11% and 1.53.
For `COc1ccc(Cl)cc1C(=O)N[C@H]1CCc2n[nH]c(=O)n2CC1`, the “% Inhibition” value is -11% and the Z score came out at 1.67.
Taken in the same sequence, the figures for `CC#CC(=O)NC[C@@](C)(C(=O)OC)c1ccccc1F` were -12% and 1.37.
`Cc1nc2c(c(NC(=O)Cc3ccccc3)nn2C)c(C)c1Cl`: the “% Inhibition” value was -8% and the Z score is reported as 0.76.
Taken in the same sequence, the figures for `CCN1C(=O)COc2ccc(NC(=O)N[C@@H]3CCc4ccccc43)cc21` were 0% and -0.04.
Take `O=C(c1cnc2nccn2c1)N1CC[C@@H]2CCC[C@@H]21`: the “% Inhibition” value is on record as 5% and the Z score was -0.55.
As for `O=C(Nc1ccccc1O)c1cc(S(=O)(=O)N2CCCCC2)cs1`, the “% Inhibition” value is -35% and the Z score was determined as 3.19.
Taken in the same sequence, the figures for `Cc1cc(OCCCS(=O)(=O)C(C)C)nn1C` were -5% and 0.56.
On to `CCC1CN(Cc2cnoc2C)C(CC)CN1Cc1cnoc1C` (stereo not drawn), for which the “% Inhibition” value was 5% and the Z score was -0.58.
For `COCCn1c(CCCC(=O)Nc2ccc(NC(C)=O)cc2)nc2cccnc21`, the “% Inhibition” value is given as -14% and the Z score came to 1.78.
On the same counts, the results for `C[C@H](NCc1ccc(S(C)(=O)=O)s1)C(C)(C)C(F)F` are -24% and 4.85.
Taken in the same sequence, the figures for `CC(C)n1cnnc1CCNC(=O)N1CCCC[C@H]1c1ccc(F)cc1` were -9% and 1.52.
As for `Cc1ccc(Oc2nc(N3CCC(C)CC3)nc3c2CN(Cc2cccc(C(F)(F)F)c2)CC3)cc1`, the “% Inhibition” value is -11% and the Z score was 1.46.
Taken in the same sequence, the figures for `O=C1CCCC[C@@H](C(=O)NCc2ccco2)N1` were -1% and 0.16.
On the same counts, the results for `CC(C)(C)[C@@H]1CCCN1C(=O)c1cc(=O)[nH]c(C2CC2)n1` are 27% and -3.09.
On the same counts, the results for `O=C(NC1CCCCC1)N(CCN1CCCCC1)C1CCOCC1` are -5% and 0.81.
In the case of `O=C(Nc1cccc(CNC(=O)C2(c3ccc(Br)cc3)CCCC2)c1)N1CCCC1`, the “% Inhibition” value is on record as -3% and the Z score is 0.41.
With `O=C(Cn1nc2ccc(C(=O)NCc3ccccc3)cn2c1=O)NCc1ccc(Cl)cc1`, the “% Inhibition” value is listed as -9% and the Z score is given as 0.77.
Take `O=C(c1ccoc1C1CC1)N1C[C@@H](CO)Cc2cccc(F)c21`: the “% Inhibition” value is recorded as -8% and the Z score was determined as 1.01.
Take `CN1C(=O)[C@@]2(c3ccccc31)N(c1cccc(Cl)c1)C(=O)CS2(=O)=O`: the “% Inhibition” value is listed as -19% and the Z score is on record as 1.87.
As to `COc1c(F)cc(S(=O)(=O)N2CCn3nccc32)cc1F`, the “% Inhibition” value is recorded as 8% and the Z score was -1.24.
Taken in the same sequence, the figures for `Cn1c(-c2ccncc2)nc2cc(C(=O)O)cc(NC(=O)C3CCC3)c21` were -12% and 1.68.
